Data taken from PubChem BioAssay (NCATS).
Where “and” joins values, the source holds several entries; their conditions need not be identical. Identical values can stand only once. The shares of active, inactive and inconclusive entries below differ from those in the screen. Where the call is inconclusive, the potency comes from a doubtful curve fit. Calls of active or inactive are those of the source. The call rests on the fitted dose curve; in most records, active means well fitted activation curve with a large enough effect; inconclusive means small, poorly fitted or top-dose-only effect; inactive means no such curve, though single readings can be large or run the other way.

molecular target: Cellular tumor antigen p53 (Homo sapiens) (UniProt P04637); assay: Primary qHTS for small molecule compounds that upregulate eGFP-tagged delta133p53alpha (in N-terminal) cells. (AID 2060322); settings: NCI-H358 eGFP-delta133p53alpha fluorescence, 24 h; activation: stronger effect = higher value; further: nearly all actives have a fitted effect of over 75% in size;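 on activation: series mostly up to about 56 µM; 0% = DMSO vehicle and 100% = reference activator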
How it was run: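 NCI-H358 cells pre-induced 24 h with 10 ng/ml doxycycline to express N-terminal eGFP-delta133p53alpha, then dosed 24 h at 37C without doxycycline; fixed, Hoechst-stained, GFP intensity by laser scanning cytometry, normalized to DMSO (0%) and 57.5 uM 5-azacytidine (100%).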
Potency means the concentration at half of the fitted maximal effect; tags describe the fitted curve by direction and shape.

UniProt P04637, sequence (P04637 whole entry, looked up): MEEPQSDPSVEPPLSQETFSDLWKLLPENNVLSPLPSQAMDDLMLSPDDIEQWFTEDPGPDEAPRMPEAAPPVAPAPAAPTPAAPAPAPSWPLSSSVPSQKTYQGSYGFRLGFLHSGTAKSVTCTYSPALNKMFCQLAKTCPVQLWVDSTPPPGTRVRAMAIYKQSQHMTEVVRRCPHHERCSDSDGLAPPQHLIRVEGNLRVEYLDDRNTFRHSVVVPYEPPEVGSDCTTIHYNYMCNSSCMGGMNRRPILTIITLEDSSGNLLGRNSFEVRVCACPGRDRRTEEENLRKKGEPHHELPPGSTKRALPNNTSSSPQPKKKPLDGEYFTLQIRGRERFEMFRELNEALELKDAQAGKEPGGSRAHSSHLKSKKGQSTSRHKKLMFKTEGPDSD

| Structure (SMILES) | Potency | activation |
| --- | --- | --- |
| Nc1nc2c(c(N3CC[C@@H](N)C3)n1)CCCc1ccccc1-2 | inconclusive: 3.38 µM [activator, single point] | – |
| C/C=C(\C)C(=O)OC1C[C@@]2(COC(C)=O)O[C@H]2/C=C\[C@@]2(C)O[C@@H]2[C@H]2OC(=O)C(COC(C)=O)=C12 (some centres undefined) | inconclusive: 18.5 µM [activator, single point] | – |
| OC1(c2ccc(Cl)c(C(F)(F)F)c2)CCN(CCCC(c2ccc(F)cc2)c2ccc(F)cc2)CC1 | inconclusive: 23.9 µM [activator, single point] | – |
| OCc1c[nH]c2ccccc12 | active: 31.7 µM | – |
| C=C1C(=O)O[C@@H]2C(OC(=O)/C(C)=C\C)/C(C)=C\C(=O)/C=C(\C)C[C@H](O)[C@@H]12 (some centres undefined) | inconclusive: 16.6 µM [activator, single point] | – |
| Cc1cc(C(=O)Cn2cc(C#N)ccc2=O)c(C)n1Cc1ccccc1 | – | inactive: 6.21% |
| CC(Oc1cc(-n2cnc3ccc(CN4CCN(C)CC4)cc32)sc1C(N)=O)c1ccccc1C(F)(F)F (centres undefined) | inconclusive: 0.757 µM [activator, partial curve, poor fit] | – |
| CN1N=C(N)c2cn([C@@H]3O[C@H](COP(=O)(O)O)[C@@H](O)[C@@H]3O)c3ncnc1c23 | inconclusive: 21.7 µM [activator, partial curve, poor fit] | – |
| O=C(c1cc(O)c(O)c(O)c1)c1ccc(O)c(O)c1O | – | inactive: 23.2% |
| CC(=O)c1ccc(O[C@@H]2O[C@H](CO)[C@@H](O)[C@H](O)[C@H]2O)cc1 | inconclusive: 3.79 µM [activator, partial curve, poor fit] | – |
| C=CCNC1=C2C[C@@H](C)C[C@H](OC)[C@@H](O)[C@@H](C)C=C(C)[C@H](OC(N)=O)[C@@H](OC)C=CC=C(C)C(=O)NC(=CC1=O)C2=O | inconclusive: 0.273 µM [activator, full curve, poor fit] | – |
| C[C@@H](NC(=O)C(=O)c1c[nH]c2ccc([N+](=O)[O-])cc12)c1ccccc1 | inconclusive: 0.301 µM [activator, full curve, poor fit] | – |
| N#Cc1ccc(Nc2nc(-c3ccc(O)cc3O)cs2)cc1C(F)(F)F | active: 26.9 µM | – |
| CCC12CCCN3CCc4c(n(c5ccccc45)C(O)C1)C32 (centres undefined) | inconclusive: 9.53 µM [activator, partial curve, poor fit] | – |
| COc1ccc2c(c1)CCCC2=O | – | inactive: 18.6% |
| CCC(C)C(=O)OC1C(C)C2(O)C(C=C(CO)CC3(O)C(=O)C(C)=CC32)C2C(C)(C)C12OC(=O)C(C)C (centres undefined) | inconclusive: 10.4 µM [activator, single point] | – |
| C[C@H]1[C@H](O)O[C@@H]2O[C@@]3(C)CC[C@@H]4[C@H](C)CC[C@@H]1[C@@]24OO3 | active: 21.7 µM | – |
| CCOC(=O)c1cnc2ccc(-c3cncc(NS(=O)(=O)c4ccccc4)c3)cn12 | inconclusive: 0.478 µM [activator, full curve, poor fit] | – |
| Cc1c(Cl)cccc1S(=O)(=O)Nc1nc(NCCc2ccccc2)nc2c1CN(Cc1ccccc1)CC2 | inconclusive: 30.1 µM [activator, single point] | – |
| Cc1onc(-c2ccccc2)c1C(=O)N1CCN(c2ccc([N+](=O)[O-])cc2Cl)CC1 | – | inactive: -0.477% |

| Structure (SMILES) | Potency | activation |
| --- | --- | --- |
| C=C(C)C1CC2(CO)C(=CC1=O)CCC(O)C2C (centres undefined) | – | inactive: -4.58% |
| C=C[C@H]1[C@H](O[C@@H]2O[C@H](CO)[C@@H](O)[C@H](O)[C@H]2O)OC=C(C(=O)OC)[C@H]1CCO | – | inactive: -7.63% |
| CN(C)CCC=C1c2ccccc2CCc2ccccc21 | – | inactive: -12.6% and inactive: -30.9% |
| CCOC(=O)c1c(N)sc2c1CCN(Cc1ccccc1)C2 | active: 15.5 µM | – |
| CC1(C)CC[C@]2(C(=O)OC3OC(CO)C(O)C(O)C3O)CC[C@]3(C)C(=CCC4[C@@]5(C)CC[C@H](OC6OC(C(=O)O)C(O)C(O)C6O)C(CO)(CO)C5CC[C@]43C)[C@@H]2C1 (some centres undefined) | inconclusive: 5.71 µM [activator, single point] | – |
| C[C@]12CC[C@@H]3c4ccc(O)cc4CC[C@H]3[C@@H]1CCC2=O | inconclusive: 11 µM [activator, partial curve, poor fit] | – |
| C#C[C@]1(O)CC[C@@H]2[C@@H]3CCc4cc(O)ccc4[C@H]3CC[C@@]21C | – | inactive: 18.7% |
| C[C@]12C=CC(=O)C=C1CC[C@@H]1[C@@H]2[C@@H](O)C[C@@]2(C)[C@@H]1CC[C@]2(O)C(=O)CO | inconclusive: 43.2 µM [activator, single point] | – |
| Cc1cn(-c2cc(NC(=O)c3ccc(C)c(Nc4nccc(-c5cnccn5)n4)c3)cc(C(F)(F)F)c2)cn1 | inconclusive: 10.7 µM [activator, partial curve, poor fit] | – |
| Clc1ccc(N2CCN(Cc3cc4ccccn4n3)CC2)cc1 | – | inactive: -21.6% |
| C=C(COC(=O)C(O)C(O)CN)C12OC1C1(C)C(=CC2=O)C(O)C(O)CC1C (centres undefined) | – | inactive: -7.63% |
| CN(C)C(=O)COC(=O)c1cc(-c2ccc(C3CCNCC3)cc2)c2ccc(-c3ccc(C(F)(F)F)cc3)cc2c1 | inconclusive: 37.9 µM [activator, single point] | – |
| CC(C)CN(C[C@H](O)[C@H](Cc1ccccc1)NC(=O)O[C@H]1CCOC1)S(=O)(=O)c1ccc(N)cc1 | inconclusive: 19.3 µM [activator, partial curve, poor fit] | – |
| C[C@@H]1CC[C@]2(C(=O)O[C@@H]3O[C@H](CO)[C@@H](O)[C@H](O)[C@H]3O)CC[C@]3(C)C(=CCC4[C@@]5(C)C[C@@H](O)[C@H](O)[C@](C)(C(=O)O)C5CC[C@]43C)[C@@H]2[C@]1(C)O (some centres undefined) | inconclusive: 1.78 µM [activator, single point] | – |
| C=C1C(=O)OC2CC(C)=C(C(C)CCCOC(C)=O)C(OC(=O)CC(C)CC)C12 (centres undefined) | inconclusive: 11.7 µM [activator, single point] | – |
| Cc1cc(Nc2nc(-c3ccccc3)nc3ccccc23)n[nH]1 | inconclusive: 37.9 µM [activator, single point] | – |
| C=CCc1ccc(O)c(-c2ccc(O)c(CC=C)c2)c1 | inconclusive: 15.3 µM [activator, single point] | – |
| CCOC(=O)COc1ccc2c(C)c(CCN(CC)CC)c(=O)oc2c1Cl | inconclusive: 30.9 µM [activator, single point] | – |
| CCC(C(=O)OCCOCCN(CC)CC)c1ccccc1 (centres undefined) | inconclusive: 19.5 µM [activator, partial curve, poor fit] | – |
